# This is one part of the list.
# System: PfSIP2 AP2 domain 1 (GST-tagged)
# Assay: gcPBM binding intensity (ln(normalized median fluorescence intensity)); higher = stronger DNA binding
# Summary of the method: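 After 1 h on an Agilent 4 × 180k array of primer-extended double-stranded 36-bp intergenic genomic probes and negative controls, bound GST-tagged P. falciparum DNA-binding domains were detected with Alexa488 anti-GST antibody and scanned at 488 nm. The domains had been expressed in E. coli, and binding took place in 1× PBS with 1% milk, 0.2 mg/ml BSA, 0.5% salmon testes DNA and 0.03% Triton X-100. Binding intensity is the highest Masliner-normalised natural-log median intensity across replicate spots of either probe orientation.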
row,Sequence,gcPBM binding intensity (ln)
1,AATATATATTTATGTACACACTCCAATACAGATACA [CACACA_site5481],7.43
2,TGTAAAAAATTTAACACACACATATATAAATATGTA [CACACA_site7261],7.08
3,CATATACATACACATACACACATACACCCATACACA [CACACA_site8514],7.33
4,AGTAAATAATTATATACATGCATTTACTAATATTTA [TGCATGCA_site952],6.94
5,ATATGACGTAGTGGTGTACACACATGGTACCTTTAT [CACACA_site8436],7.23
6,TTCGTTCTTTTATGCACACTCAACATATAAATTAAA [CACACA_site1209],8.67
7,TTATAATATATATGTAGTACTGTTTTTTTCTATTTT [XGTACX_site7749],6.83
8,TGTACAAATATGTACACACACACATATATATATATA [CACACA_site584],9.35
9,TATTATTTTAAAAATGCATGTTCATATGAAATAATA [TGCATGCA_site969],7.25
10,ATACTATTATATATATGTACATATATATGATGCTCT [XGTACX_site1771],7.22
11,AAGGAGCCTATGAACACACACATGTACATATATTAA [CACACA_site4084],7.03
12,TAATTAAGCATAAATATAATTTTATATTTTATTTCC [XGTACX_negctrl_site321],6.74
13,TAACATAGCAATGTTTCACACACAAGAAAAAATACA [CACACA_site8747],7.08
14,TGCAGTCTGGAGAAAAGTACATAGTATCTGGTAGCT [XGTACX_site2547],6.89
15,ATATATGTATATATTTGTACATATAATATTTTTTAA [XGTACX_site6345],6.85
16,ATTTGTAATTTATTCAAACACACAATTTGGACCTTT [CACACA_site1062],6.74
17,TATTCACATACAGAAACACACACATATATATAAATT [CACACA_site9232],7.13
18,TTTGTGTGTGCGTGTGCATGTTGTTTTTTTCTATAA [TGCATGCA_site17],7.78
19,AATATAATAACTTATTGTACGAAATTATATCACCTT [XGTACX_site7883],6.86
20,AGAGAGAGAAATACAAGTACATGTGAAACCAATCTA [XGTACX_site2767],6.98
21,AAAAAATAAAAAAAAACACACACATACAAGCATATA [CACACA_site8451],6.91
22,TTCAACATAATATGCACACAAAAATTATGGAACGAA [CACACA_site2111],8.18

row,Sequence,gcPBM binding intensity (ln)
1,AAAAAAAAAAAAATTGCACACAAAAAAAAAAAAAAA [CACACA_site8644],7.5
2,AAAAAAAACAAATACACACGCACACCGAAAAAAAAA [CACACA_site803],7.1
3,CAGACAATAAAGAAGTGTACACATATATCAATAAAA [XGTACX_site4515],7
4,CTTTATCTTCTCACGAAGATTGAATAAGGTATTCTT [XGTACX_negctrl_site307],6.6
5,AAAAAAAAAAAACACACACACACACCCACAAAATAT [CACACA_site1447],7.15
6,AAAAAAAAATACCTACGTACATATATATATTATATA [XGTACX_site3983],7.38
7,TTAATGCACTTTATTACACACACTAGTTCATTACCT [CACACA_site2294],8.54
8,TATATTATAATTTGAAGTACATTTTAAATTAACTAA [XGTACX_site1013],6.99
9,ATATAATAGTATATATGTACATATATTTAAATACTA [XGTACX_site1135],7.02
10,TATTTTATAAATACAAGTAAAATTAAATATATAATA [XGTACX_negctrl_site221],6.83
11,AGGAGGATATTACACAGTACCCAGGAAATCTACGGA [XGTACX_site4878],6.82
12,TTGTACTACAATCCTTTATTTATTTAAACCTGTATG [CACACA_negctrl_site428],7.01
13,TATATAAATAGACACACACACACATATAAATAAATA [CACACA_site7855],7.1
14,TTTCAATGCATAAAAGTGCGCAATAATTTAAAGATC,8.56
15,AAAAAAAAATAAAATAAAATAAAATAAAATAATATA [CACACA_negctrl_site1798],6.76
16,AAACAAATGTACAAAGTGCATATTTTTTTCAAAAGG,8.11
17,ACATATGTATAATAATGTACGCATTAAATATAATTA [XGTACX_site7851],6.98
18,ATAATATATATTAATACACACACACCGATATATATA [CACACA_site9261],7.44
19,GACCAATACTTTAAAAGTACAAACCTTATTTTATTT [XGTACX_site2718],7.22
20,AATTATGCATTTGTCACACATATATATTACACTTGC [CACACA_site5324],7.13
21,AAAAAAAAAAAAAAATGTACATTATACACATTATAT [XGTACX_site6824],7.29
22,TAGCCAAAATATAATTTACACACTTATTAAATAATT [CACACA_site7963],6.79

# From the supplement of paper PMC11417369
